Data taken from the supplement of paper PMC4967469.
The IC50 comes from the fitted curve, where viability falls to half of the control; where the fit passes the top or lowest dose, that dose stands as a limit. AUC, from the same fit, is the share of area under the viability curve across the 256-fold dose range; values near 1 show little effect. For some of these results: Any top dose called inferred comes from the curve model; the source does not state it. For some of these results: Drugs with an entry number were screened twice under separate entries, and the two screens often disagree.

Key:
Assay in all cases: Viability of human cancer cell lines after 72 h of drug (GDSC screen)
AMG-706 = compound: CC1(C)CNc2cc(NC(=O)c3cccnc3NCc3ccncc3)ccc21 [AMG-706]; conditions: top dose 2 µM; top dose inferred
Method: (§1)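 Human cancer cell lines in 384-well plates, medium with 10% serum, drug for 72 h over a 256-fold dose range (nine 2-fold or five 4-fold steps up to the top dose). Adherent lines were fixed and stained with the nucleic acid dye Syto60, suspension lines read with resazurin; signal relative to control wells, capped at 0 and 100%. One two-parameter sigmoid per drug and line, fitted in a mixed model over all curves with the slope shared within a line.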

JNK Inhibitor VIII = compound: CCOc1nc(NC(=O)Cc2cc(OC)ccc2OC)cc(N)c1C#N [JNK Inhibitor VIII]; conditions: top dose 10 µM; top dose inferred
Method: as §1

FTI-277 = compound: COC(=O)[C@H](CCSC)NC(=O)c1ccc(NC[C@@H](N)CS)cc1-c1ccccc1 [FTI-277]; conditions: top dose 1.024 µM; top dose inferred
Method: as §1

JQ1 = compound: Cc1sc2c(c1C)C(c1ccc(Cl)cc1)=N[C@@H](CC(=O)OC(C)(C)C)c1nnc(C)n1-2 [JQ1]
Method: as §1

JNJ-26854165 = compound: c1ccc2c(CCNc3ccc(Nc4ccncc4)cc3)c[nH]c2c1 [JNJ-26854165]; conditions: top dose 10 µM
Method: as §1

YM155 = compound: COCC[n+]1c2c(n(Cc3cnccn3)c1C)C(=O)c1ccccc1C2=O [YM155]; conditions: top dose 5.12 µM
Method: as §1

Cyclopamine = compound: CC1=C2C[C@H]3[C@@H](CC=C4C[C@@H](O)CC[C@@]43C)[C@@H]2CC[C@]12O[C@@H]1C[C@H](C)CN[C@H]1[C@H]2C [Cyclopamine]; conditions: top dose 16 µM; top dose inferred
Method: as §1

Belinostat = compound: O=C(/C=C/c1cccc(S(=O)(=O)Nc2ccccc2)c1)NO [Belinostat]; conditions: top dose 20 µM; top dose inferred
Method: as §1

CGP-60474 = compound: OCCCNc1cc(-c2ccnc(Nc3cccc(Cl)c3)n2)ccn1 [CGP-60474]; conditions: top dose 0.256 µM; top dose inferred
Method: as §1

OSI-906 = compound: C[C@]1(O)C[C@@H](c2nc(-c3ccc4ccc(-c5ccccc5)nc4c3)c3c(N)nccn32)C1 [OSI-906]; conditions: top dose 2.56 µM; top dose inferred
Method: as §1

NSC-207895 = compound: CN1CCN(c2ccc([N+](=O)[O-])c3no[n+]([O-])c23)CC1 [NSC-207895]; conditions: top dose 20 µM; top dose inferred
Method: as §1

Docetaxel = compound: CC(=O)O[C@@]12CO[C@@H]1C[C@H](O)[C@@]1(C)C(=O)[C@H](O)C3=C(C)[C@@H](OC(=O)[C@H](O)[C@@H](NC(=O)OC(C)(C)C)c4ccccc4)C[C@@](O)([C@@H](OC(=O)c4ccccc4)[C@H]21)C3(C)C [Docetaxel]; conditions: top dose 0.0125 µM
Method: as §1

SB-715992 = compound: Cc1ccc(C(=O)N(CCCN)[C@@H](c2nc3cc(Cl)ccc3c(=O)n2Cc2ccccc2)C(C)C)cc1 [SB-715992]; conditions: top dose 0.128 µM; top dose inferred
Method: as §1

[1] = top dose 1 µM, screen: GDSC drug entry 1218, top dose inferred
[2] = top dose 2.56 µM, screen: GDSC drug entry 163

Cell Line | AUC (AMG-706) | IC50 (AMG-706) [µM] | AUC (JNK Inhibitor VIII) | IC50 (JNK Inhibitor VIII) [µM] | AUC (FTI-277) | IC50 (FTI-277) [µM] | AUC (JQ1; [1]) | IC50 (JQ1; [1]) [µM] | AUC (JQ1; [2]) | IC50 (JQ1; [2]) [µM] | AUC (JNJ-26854165) | IC50 (JNJ-26854165) [µM] | AUC (YM155) | IC50 (YM155) [µM] | AUC (Cyclopamine) | IC50 (Cyclopamine) [µM] | AUC (Belinostat) | IC50 (Belinostat) [µM] | AUC (CGP-60474) | IC50 (CGP-60474) [µM] | AUC (OSI-906) | IC50 (OSI-906) [µM] | AUC (NSC-207895) | IC50 (NSC-207895) [µM] | AUC (Docetaxel) | IC50 (Docetaxel) [µM] | AUC (SB-715992) | IC50 (SB-715992) [µM]
MEG-01 (chronic myeloid leukaemia, suspension) | 0.987 | > 2 | 0.988 | > 10 | 0.987 | > 1.02 | 0.771 | 0.361 | 0.619 | 0.333 | 0.888 | > 10 | 0.201 | 0.0448 | 0.986 | > 16 | 0.418 | 0.758 | 0.776 | 0.0962 | 0.987 | > 2.56 | 0.96 | > 20 | 0.93 | > 0.0125 | 0.856 | 0.0938
MFM-223 (breast, adherent) | 0.953 | > 2 | 0.98 | > 10 | 0.985 | > 1.02 | 0.988 | > 1 | 0.988 | > 2.56 | 0.961 | > 10 | 0.052 | < 0.02 | 0.989 | > 16 | 0.463 | 0.995 | 0.988 | > 0.256 | 0.989 | > 2.56 | 0.983 | > 20 | 0.764 | 0.00448 | 0.983 | > 0.128
ML-2 (acute myeloid leukaemia, suspension) | 0.978 | > 2 | 0.977 | > 10 | 0.989 | > 1.02 | 0.98 | > 1 | 0.664 | 0.431 | 0.959 | > 10 | 0.034 | < 0.02 | 0.889 | 14.7 | 0.453 | 0.946 | 0.795 | 0.104 | 0.522 | 0.183 | 0.84 | 11.7 | 0.939 | > 0.0125 | 0.598 | 0.0144
MLMA (hairy cell leukaemia, semi-adherent) | 0.923 | > 2 | 0.964 | > 10 | 0.98 | > 1.02 | 0.976 | > 1 | 0.782 | 1.08 | 0.703 | 2.34 | 0.025 | < 0.02 | 0.985 | > 16 | 0.181 | 0.136 | 0.717 | 0.0663 | 0.983 | > 2.56 | 0.786 | 8.7 | 0.763 | 0.00455 | 0.719 | 0.0335
MN-60 (B-cell leukaemia, suspension) | 0.988 | > 2 | 0.988 | > 10 | 0.988 | > 1.02 | 0.97 | > 1 | 0.694 | 0.576 | 0.983 | > 10 | 0.034 | < 0.02 | 0.988 | > 16 | 0.261 | 0.251 | 0.84 | 0.186 | 0.944 | > 2.56 | 0.967 | > 20 | 0.988 | > 0.0125 | 0.904 | > 0.128
MRK-nu-1 (breast, suspension) | 0.99 | > 2 | 0.99 | > 10 | 0.988 | > 1.02 | 0.989 | > 1 | 0.87 | 2.06 | 0.916 | > 10 | 0.065 | < 0.02 | 0.968 | > 16 | 0.675 | 3.67 | 0.61 | 0.0312 | 0.99 | > 2.56 | 0.798 | 8.61 | 0.977 | > 0.0125 | 0.896 | > 0.128
MS-1 (small cell lung carcinoma, suspension) | 0.991 | > 2 | 0.991 | > 10 | 0.989 | > 1.02 | 0.991 | > 1 | 0.795 | 1.05 | 0.956 | > 10 | 0.08 | < 0.02 | 0.962 | > 16 | 0.195 | 0.177 | 0.783 | 0.0957 | 0.827 | 1.34 | 0.921 | > 20 | 0.949 | > 0.0125 | 0.734 | 0.034
MSTO-211H (mesothelioma, adherent) | 0.991 | > 2 | 0.987 | > 10 | 0.98 | > 1.02 |  |  | 0.99 | > 2.56 | 0.912 | > 10 | 0.453 | 0.241 | 0.977 | > 16 | 0.613 | 2.47 | 0.967 | > 0.256 | 0.991 | > 2.56 | 0.984 | > 20 | 0.889 | 0.0119 | 0.987 | > 0.128
MZ2-MEL (melanoma, adherent) | 0.682 | 0.444 | 0.802 | 5.95 | 0.958 | > 1.02 | 0.967 | > 1 | 0.86 | > 2.56 | 0.966 | > 10 | 0.082 | < 0.02 | 0.979 | > 16 | 0.647 | 3.43 | 0.675 | 0.0541 | 0.844 | 2.33 | 0.909 | > 20 | 0.73 | 0.004 | 0.875 | > 0.128
